US20080075796A1, “Compositions and Methods for Controlling Insects” (TyraTech, Inc., priority 2003, published 2008)

Tested on: Carpenter ants
Assay: Repellent effect on carpenter ants (treated filter paper)
Format: in vivo
Description: Adult insect are randomly selected for testing the repellent effect of compositions and are not individually marked. About 5 insects per replicate are used. About 3 replicates are used for each treatment. Untreated control tests are included with only solvent (acetone) application to an equal sized population/replications, held under identical conditions. A filter paper (about 80 cm^2) is treated with the composition (about 100 mg in […] acetone). After about 3 min of air drying, the filter paper is placed in a dish and repellency against insects is performed. Insects are released to the dish, one insect at a time at the far end of the dish. Using one or more stopwatches, the time spent on either the filter paper or the untreated surface of the dish is recorded up to about 300 seconds. Repellency ratio (RR) is calculated as follows: RR=[(time on control surface−time on treated surface)/total time of test]. If RR>0 then the composition is considered to have a repellant effect, that is to say, an effect, wherein more insects are repelled away from treated surface than the control surface; if RR<0 then the composition is considered not to have a repellant effect.
The repellent effect of various plant essential oils is tested by treating a filter paper with the test oils. After about five minutes at room temperature, the paper is placed in a dish and ants are introduced one at a time. The repellency is determined as described above, in Example 14. Oils are tested alone. Additionally, oils are mixed to form compositions, which are then tested.

[1] = Day 0, time on treated surface of up to about 300 seconds

Row | SMILES | Repellency %, R % (Day 0) [%] | sec. on T surface [1] | sec. on T surface (Day 1) [s] | Repellency %, R % (Day 1) [%]
1 | Cc1ccc(C(C)C)c(O)c1 [thymol] | 58.3 | 62.0 s and 62 s | 104.4 | 
2 | C=CCc1ccc(O)c(OC)c1 [eugenol] | 48.8 | 76.8 s | 139.0 | 7.3

Where “and” joins values, the source holds several entries; their conditions need not be identical. Identical values can stand only once.
